Experimental data: article PMC12820563, “FoxP3 forms a head-to-head dimer in vivo and stabilizes its multimerization on adjacent microsatellites”
The list shows a part of the results.

molecular target: T1, MBP-FoxP1dN (Mus musculus, UniProt P58462 326-579); assay: PD-seq (MBP pull-down with sequencing); 20 mM Tris-HCl pH 7.5, 100 mM NaCl, 1.5 mM MgCl2, 0.4 uM protein, 0.1 uM dsDNA library, 30 min, room temperature, amylose pull-down; high values mean tight binding; conditions: protein: recombinant; tags: His6-MBP; chain copies: 2; dsDNA, one strand shown
T1 sequence: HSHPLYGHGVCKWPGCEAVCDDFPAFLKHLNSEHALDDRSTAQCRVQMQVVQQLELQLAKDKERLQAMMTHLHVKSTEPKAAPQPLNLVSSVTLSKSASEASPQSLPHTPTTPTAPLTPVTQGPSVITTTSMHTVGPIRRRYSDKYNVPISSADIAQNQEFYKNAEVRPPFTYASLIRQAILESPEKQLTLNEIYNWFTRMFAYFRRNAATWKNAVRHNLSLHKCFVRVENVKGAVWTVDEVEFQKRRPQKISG
Method in brief: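 Protein and DNA were mixed at 0.4 µM and 0.1 µM and held for 30 min at room temperature in Tris pH 7.5 buffer with NaCl and MgCl2; the protein was a His6-MBP-tagged, N-terminally truncated mouse FoxP3 or FoxP1 fragment from E. coli, and the DNA a Klenow-filled double-stranded degenerate library. Amylose resin captured the complexes, which were washed three times. Binding is read as reads-per-million enrichment of pull-down versus input after Illumina sequencing, with replicates pooled.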

Row | Sequence | binding signal
1 | GATGATTGTTCTCCCAGCTGATGAATTCATAATGTCGAGTAAACAAATTTTCCTAATCTTTCTGTTCAAGCGCCATCTAC | 1.07 RPM ratio (pull-down/input)
2 | GATGATTGTTCTCCCAGCTGATGAATTTACTACGTCGAGTAAACAAATTTTCCTAATCTTTCTGTTCAAGCGCCATCTAC | 1.21 RPM ratio (pull-down/input)
3 | GATGATTGTTCTCCCAGCTGATGAATTTATCGAATCGAGTAAACAAATTTTCCTAATCTTTCTGTTCAAGCGCCATCTAC | 1.13 RPM ratio (pull-down/input)
4 | GATGATTGTTCTCCCAGCTGATGAATTGGCCCTTTCGAGTAAACAAATTTTCCTAATCTTTCTGTTCAAGCGCCATCTAC | 0.782 RPM ratio (pull-down/input)
5 | GATGATTGTTCTCCCAGCTGATGAATTTCCCTTGTCGAGTAAACAAATTTTCCTAATCTTTCTGTTCAAGCGCCATCTAC | 0.838 RPM ratio (pull-down/input)
6 | GATGATTGTTCTCCCAGCTGATGAATTAGACGCTTCGAGTAAACAAATTTTCCTAATCTTTCTGTTCAAGCGCCATCTAC | 0.937 RPM ratio (pull-down/input)
7 | GATGATTGTTCTCCCAGCTGATGAATTTTGTTACTCGAGTAAACAAATTTTCCTAATCTTTCTGTTCAAGCGCCATCTAC | 1.24 RPM ratio (pull-down/input)
8 | GATGATTGTTCTCCCAGCTGATGAATTAGTGCGATCGAGTAAACAAATTTTCCTAATCTTTCTGTTCAAGCGCCATCTAC | 1.01 RPM ratio (pull-down/input)
9 | GATGATTGTTCTCCCAGCTGATGAATTCGCGTACTCGAGTAAACAAATTTTCCTAATCTTTCTGTTCAAGCGCCATCTAC | 0.843 RPM ratio (pull-down/input)
10 | GATGATTGTTCTCCCAGCTGATGAATTGCGTTAGTCGAGTAAACAAATTTTCCTAATCTTTCTGTTCAAGCGCCATCTAC | 1.17 RPM ratio (pull-down/input)
11 | GATGATTGTTCTCCCAGCTGATGAATTCCGCAGATCGAGTAAACAAATTTTCCTAATCTTTCTGTTCAAGCGCCATCTAC | 0.785 RPM ratio (pull-down/input)
12 | GATGATTGTTCTCCCAGCTGATGAATTAGATGTTTCGAGTAAACAAATTTTCCTAATCTTTCTGTTCAAGCGCCATCTAC | 1.19 RPM ratio (pull-down/input)
13 | GATGATTGTTCTCCCAGCTGATGAATTGAGTATATCGAGTAAACAAATTTTCCTAATCTTTCTGTTCAAGCGCCATCTAC | 1.1 RPM ratio (pull-down/input)
14 | GATGATTGTTCTCCCAGCTGATGAATTGGGCTTATCGAGTAAACAAATTTTCCTAATCTTTCTGTTCAAGCGCCATCTAC | 0.909 RPM ratio (pull-down/input)
15 | GATGATTGTTCTCCCAGCTGATGAATTTTAAATCTCGAGTAAACAAATTTTCCTAATCTTTCTGTTCAAGCGCCATCTAC | 0.797 RPM ratio (pull-down/input)
16 | GATGATTGTTCTCCCAGCTGATGAATTTAACCCATCGAGTAAACAAATTTTCCTAATCTTTCTGTTCAAGCGCCATCTAC | 0.855 RPM ratio (pull-down/input)
17 | GATGATTGTTCTCCCAGCTGATGAATTCCCACAGTCGAGTAAACAAATTTTCCTAATCTTTCTGTTCAAGCGCCATCTAC | 0.823 RPM ratio (pull-down/input)
18 | GATGATTGTTCTCCCAGCTGATGAATTCTCTAAATCGAGTAAACAAATTTTCCTAATCTTTCTGTTCAAGCGCCATCTAC | 1.13 RPM ratio (pull-down/input)
19 | GATGATTGTTCTCCCAGCTGATGAATTGAGTCGGTCGAGTAAACAAATTTTCCTAATCTTTCTGTTCAAGCGCCATCTAC | 0.747 RPM ratio (pull-down/input)
20 | GATGATTGTTCTCCCAGCTGATGAATTCCGCAGTTCGAGTAAACAAATTTTCCTAATCTTTCTGTTCAAGCGCCATCTAC | 0.746 RPM ratio (pull-down/input)

Row | Sequence | binding signal
21 | GATGATTGTTCTCCCAGCTGATGAATTCCCTGGCTCGAGTAAACAAATTTTCCTAATCTTTCTGTTCAAGCGCCATCTAC | 0.716 RPM ratio (pull-down/input)
22 | GATGATTGTTCTCCCAGCTGATGAATTCCTTAACTCGAGTAAACAAATTTTCCTAATCTTTCTGTTCAAGCGCCATCTAC | 0.862 RPM ratio (pull-down/input)
23 | GATGATTGTTCTCCCAGCTGATGAATTGGAACAATCGAGTAAACAAATTTTCCTAATCTTTCTGTTCAAGCGCCATCTAC | 1.4 RPM ratio (pull-down/input)
24 | GATGATTGTTCTCCCAGCTGATGAATTTACCAGCTCGAGTAAACAAATTTTCCTAATCTTTCTGTTCAAGCGCCATCTAC | 1.05 RPM ratio (pull-down/input)
25 | GATGATTGTTCTCCCAGCTGATGAATTCTCCATCTCGAGTAAACAAATTTTCCTAATCTTTCTGTTCAAGCGCCATCTAC | 0.828 RPM ratio (pull-down/input)
26 | GATGATTGTTCTCCCAGCTGATGAATTTCTCCACTCGAGTAAACAAATTTTCCTAATCTTTCTGTTCAAGCGCCATCTAC | 0.945 RPM ratio (pull-down/input)
27 | GATGATTGTTCTCCCAGCTGATGAATTTAAACGATCGAGTAAACAAATTTTCCTAATCTTTCTGTTCAAGCGCCATCTAC | 0.917 RPM ratio (pull-down/input)
28 | GATGATTGTTCTCCCAGCTGATGAATTCGCGATGTCGAGTAAACAAATTTTCCTAATCTTTCTGTTCAAGCGCCATCTAC | 0.962 RPM ratio (pull-down/input)
29 | GATGATTGTTCTCCCAGCTGATGAATTACTTTTCTCGAGTAAACAAATTTTCCTAATCTTTCTGTTCAAGCGCCATCTAC | 1.1 RPM ratio (pull-down/input)
30 | GATGATTGTTCTCCCAGCTGATGAATTAGTCCTATCGAGTAAACAAATTTTCCTAATCTTTCTGTTCAAGCGCCATCTAC | 0.933 RPM ratio (pull-down/input)
31 | GATGATTGTTCTCCCAGCTGATGAATTAAGCGACTCGAGTAAACAAATTTTCCTAATCTTTCTGTTCAAGCGCCATCTAC | 0.552 RPM ratio (pull-down/input)
32 | GATGATTGTTCTCCCAGCTGATGAATTGGGTGCTTCGAGTAAACAAATTTTCCTAATCTTTCTGTTCAAGCGCCATCTAC | 0.861 RPM ratio (pull-down/input)
33 | GATGATTGTTCTCCCAGCTGATGAATTTAACTCATCGAGTAAACAAATTTTCCTAATCTTTCTGTTCAAGCGCCATCTAC | 0.912 RPM ratio (pull-down/input)
34 | GATGATTGTTCTCCCAGCTGATGAATTGCCGAGATCGAGTAAACAAATTTTCCTAATCTTTCTGTTCAAGCGCCATCTAC | 0.887 RPM ratio (pull-down/input)
35 | GATGATTGTTCTCCCAGCTGATGAATTGCTCTCCTCGAGTAAACAAATTTTCCTAATCTTTCTGTTCAAGCGCCATCTAC | 0.853 RPM ratio (pull-down/input)
36 | GATGATTGTTCTCCCAGCTGATGAATTTACCAGGTCGAGTAAACAAATTTTCCTAATCTTTCTGTTCAAGCGCCATCTAC | 1.04 RPM ratio (pull-down/input)
37 | GATGATTGTTCTCCCAGCTGATGAATTTAGTAGATCGAGTAAACAAATTTTCCTAATCTTTCTGTTCAAGCGCCATCTAC | 0.978 RPM ratio (pull-down/input)
38 | GATGATTGTTCTCCCAGCTGATGAATTCTGTCCTTCGAGTAAACAAATTTTCCTAATCTTTCTGTTCAAGCGCCATCTAC | 0.894 RPM ratio (pull-down/input)
39 | GATGATTGTTCTCCCAGCTGATGAATTATGGTAGTCGAGTAAACAAATTTTCCTAATCTTTCTGTTCAAGCGCCATCTAC | 0.994 RPM ratio (pull-down/input)
40 | GATGATTGTTCTCCCAGCTGATGAATTCCAAATTTCGAGTAAACAAATTTTCCTAATCTTTCTGTTCAAGCGCCATCTAC | 0.833 RPM ratio (pull-down/input)
